# Test results reported in ChEMBL document CHEMBL4888484, “Replenishing the malaria drug discovery pipeline: Screening and hit evaluation of the MMV Hit Generation Library 1 (HGL1) against asexual blood stage Plasmodium falciparum ,using a nano luciferase reporter read-out” (2022).
# Hit rate of the full screen: of about 150,000 compounds, about 540 (0.36%) showed an effect of 50% or more. The list shows a part of the results.
# Test system: Plasmodium falciparum
# Test: Primary screen in NF54 nanoGlo assay, in single point, at 2uM, 72h; a lower Z score goes with more inhibition
# Type: functional, Erythrocyte
# Conditions: timepoint 72 hour
SMILES,% Inhibition,Z score
CC(C)(C)Cc1ccccc1C(=O)Nc1ncc2c(n1)CCOC2,-11%,1.66
CCNC(=O)[C@@H]1C[C@H](NCc2ccc(C(F)(F)F)cc2)CN1Cc1ccccc1,-5%,0.59
CCS(=O)(=O)Oc1cc(CN(Cc2ccco2)C(=O)C(C)C)ccc1OC,-22%,3.16
CN(C[C@H]1CCCOC1)C(=O)Nc1ccc2c(N(C)C)nccc2c1,-6%,1.02
CC(C)C1CCCN(C(=O)C2CCCO2)CC1 (centres undefined),-2%,0.21
Cc1nn(C)cc1N(C(=O)c1cnccn1)[C@@H](C(=O)NC1CCCCC1)c1cccc(F)c1,-7%,1.29
COc1ccc(C)cc1Cn1ncc(Br)c1C1CC1,-2%,0.28
Cc1cnn(C2CN(Cc3c(C)noc3C)C2)c1,-8%,0.83
CCN1C[C@@H](C(=O)Nc2ccccc2Oc2ccccc2)CC1=O,-8%,0.77
Cc1cc(C)c2nc(C3C(=O)c4ccccc4C3=O)cc(O)c2c1,-16%,2.2
CCn1cc(C2=NN(c3cc(C)ccc3F)C(=O)C2)cn1,-10%,1.78
CCOC(=O)c1cn(Cc2nc(C)cs2)c2nc(C)ccc2c1=O,-23%,4.34
Cc1c(CNC2CCCCCCC2)c(C(=O)O)c(C)n1Cc1c(F)cccc1Cl,-8%,1.55
Cc1ccc(CN(Cc2cc(=O)n(C)c(=O)n2C)C[C@H]2CCCO2)o1,-1%,0.07
Cc1cc(F)cc(CN2[C@@H]3CN(C(=O)CCc4ccccc4)C[C@@H]3OCCS2(=O)=O)c1,-10%,1.77
CCOc1ccccc1NC(=O)Cn1c(C)ncc(C(=O)NC2CCCC2)c1=O,3%,-0.42
c1ccc(COc2ccc(Nc3cnc4ccccc4n3)cc2)cc1,-7%,0.87
O=C1CCC(C(=O)N2CCC(c3nc4ccccc4s3)CC2)=NN1,-13%,1.81
CN(C)c1ccc(NC(=O)CN(Cc2ccccc2)C(=O)CN2C(=O)C(=O)c3ccccc32)cc1,19%,-2.33
Cc1cccc(Br)c1C(=O)N[C@H]1CCCn2c(C)nnc21,1%,-0.23
Cc1ccnc(NC(=O)c2occc2CN2c3ccccc3C[C@@H]2C)n1,3%,-0.34

SMILES,% Inhibition,Z score
O=C1C[C@H](c2ccc(C(=O)O)cc2)c2snc(-c3ccc(F)cc3)c2N1,28%,-3.16
O=C(Cc1ncccc1F)NC1(CN2CCN(c3ccc(F)cc3)CC2)CC1,-7%,1.18
COc1ccc(NS(=O)(=O)c2cccc(C(=O)N3CCC3)c2)cc1Br,-4%,0.35
Cc1ccc(-c2cc(C(=O)N3CCN(Cc4ccc5c(c4)OCO5)CC3)c(C)[nH]2)cc1C,-8%,0.99
O=C(O)[C@H]1CCCN1c1nnc(-c2ccccc2)s1,-15%,1.43
CC(C)OC(=O)Cn1ncc(=O)c2ccccc21,-8%,1.25
Cc1nnc(C(=O)N[C@H](C)CC2CCCCC2)s1,-20%,2.06
CN(Cc1ccc2c(c1)OCO2)C(=O)c1ccsc1,-14%,1.44
CCn1c(C)cc(C(=O)N2CCCC[C@@H]2CN)c1C,3%,-0.37
COCCOC[C@H](OC(=O)c1ccc(C#N)cc1)C(C)(C)C,18%,-2.3
CC(C)Nc1ncc(C(=O)N2CCN(c3nccs3)CC2)cn1,-14%,1.28
CCC1CC(Nc2cccc(C(=O)O)n2)CCO1 (centres undefined),3%,-0.23
CCCN(CCC)S(=O)(=O)N1CCC[C@H](c2ccncc2)CC1,0%,-0.04
CCCn1cc(CNCC(c2cccs2)N2CCOC(C)C2)cn1 (centres undefined),-8%,0.71
O=C(C[C@H]1COCCN1Cc1cnc2ccccn12)c1ccco1,3%,-0.44
CC(C)Cc1ncc2c(n1)CN(CCC(=O)Nc1ccsc1C(=O)O)C2,2%,-0.28
Cc1ccc(OCCC(=O)N2CC[C@@H](N)C2)c(C)c1,-10%,1.5
O=C(NCCN1CCCC1=O)c1coc(COc2ccc(F)cc2)n1,1%,-0.19
Cc1cccc(N(C)C(=O)[C@H](C)n2nc(C)c3c(C)onc3c2=O)c1,-7%,0.73
COc1ccccc1CC(=O)N1CCC(c2nc(C(=O)N3CCOCC3)c(C)o2)CC1,-9%,1.61
O=C1N(Cc2ccc(F)c(F)c2)CCC[C@@]1(O)CNC1(c2ccccc2)CC1,3%,-0.3
